# According to PubChem BioAssay AID760 (NMMLSC, 2007):
# The whole screen tested about 190,000 compounds, of which about 360 (0.19%) were called active. This list was built around the results that the source calls inconclusive (neither active nor inactive); the mix of calls is not that of the screen.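 The calls were made as follows: active = GTP binding activity at least 20 points away from 100%, either lowered or raised; inconclusive = signal likely due to the compound's own green fluorescence; inactive = the rest.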
# Target: Ras-related protein Rab-2A (Canis lupus familiaris) (UniProt P61105)
# Test: Rab2 wt fluorescent GTP binding changes, either direction – biochemical, dog, bead-based flow cytometry, multiplex, primary screen (AID 760);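 also: 0% = beads with excess unlabeled GTP and 100% = no-compound control corrected for plate trend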
# Details: GST-Rab2 wt beads, Bodipy-GTP binding, at 10 µM
row,SMILES,GTP binding activity
1,O=[N+]([O-])c1ccc(C=Nc2ccc(Cl)cc2Cl)s1,inconclusive: 110%
2,COC(=O)c1cccn(CC(=O)c2ccc(Cl)cc2)c1=O,inactive: 94%
3,Cc1cccc(NC2=CC(=O)CC(C)(C)C2)c1C,inactive: 90%
4,O=C(Cc1ccc(F)cc1)Nc1ccccc1Sc1ccccc1,inconclusive: 99%
5,O=C(COc1ccc(Cl)cc1Cl)N1CCCCCC1,inconclusive: 106%
6,O=C(CNC(=S)NC(=O)C1CCCCC1)c1ccccc1,inconclusive: 100%
7,CCOC(=O)c1c(C)[nH]c(-c2csc(C)n2)c1C,inconclusive: 93%
8,CN1CCS/C1=C/C=C1/SC(=S)N(Cc2ccccc2)C1=O,inactive: 99%
9,COC(=O)c1cc(C(=O)OC)[nH]n1,inactive: 97%
10,C[N+]1(CC(O)COCC2COc3ccccc3O2)CCOCC1 (stereo unspecified),inactive: 102%
11,O=C(NCC(c1cccnc1)N1CCOCC1)c1ccco1 (stereo unspecified),inconclusive: 93%
12,O=C(O)C(Cc1c[nH]c2ccccc12)NS(=O)(=O)c1ccc2ccccc2c1 (stereo unspecified),inconclusive: 85%
13,Clc1nc2sccn2c1/C=N/n1cnc2ccccc21,inconclusive: 90%
14,O=C(NC1CCCCC1)c1noc2c1CCCCC2,inactive: 110%
15,COc1cccc(OCc2nnc(SCC(=O)NCc3ccco3)n2C)c1,inconclusive: 109%
16,CS(=O)(=O)N(CC(=O)NC1CC2CCC1C2)c1ccc(Oc2ccccc2)cc1 (stereo unspecified),inactive: 97%
17,COc1ccc(NC(=O)c2cccnc2SC)cc1S(=O)(=O)N1CCCCC1,inactive: 100%
18,COC(=O)CSc1ccc(C#N)c(SCC(=O)OC)c1,inconclusive: 107%
19,COCCn1c(SCc2nc3scc(-c4ccc(Cl)cc4)c3c(=O)[nH]2)nnc1-c1cccc(C)c1,inconclusive: 91%
20,CCOc1ccc(C(=O)Nc2ccc(N3CCN(S(C)(=O)=O)CC3)cc2)cc1[N+](=O)[O-],inconclusive: 95%
21,COc1ccc(/C=N/NC(=O)c2c([N+](=O)[O-])c(C)nn2C)cc1,inconclusive: 101%
22,Nc1c(S(=O)(=O)c2cccc(Cl)c2)c2nc3ccccc3nc2n1/N=C/c1ccc(O)c(O)c1,active: 76%
23,CC(C)CCN1CN(S(=O)(=O)c2cccs2)c2nc3ccccc3nc21,inconclusive: 103%

row,SMILES,GTP binding activity
1,O=C1CNC(=O)/C1=C/c1ccc(O)cc1,inconclusive: 104%
2,Cc1cccc(OCC(O)CN2C(C)(C)CC(O)CC2(C)C)c1 (stereo unspecified),inconclusive: 103%
3,S=C(NCc1cccs1)Nc1ccc(Cl)cc1,inconclusive: 90%
4,COc1ccc(Nc2nc(N)nc(CSC(=S)N3CCOCC3)n2)cc1,inconclusive: 96%
5,Cc1ccc(NN2C(=O)C=C(c3ccc(Cl)cc3)C2=O)cc1,inactive: 98%
6,COc1ccc(S(=O)(=O)CCC(=O)NCCc2ccc(C)cc2)cc1,inconclusive: 102%
7,N#Cc1cc([N+](=O)[O-])ccc1NC(=O)COC(=O)CCC1CCCCC1,inactive: 91%
8,CC(=O)Cc1nsc(NC(=O)c2ccco2)n1,inconclusive: 108%
9,COc1cccc(C(=O)Nc2cccc(C(=O)NC3=NN(c4c(Cl)cc(Cl)cc4Cl)C(=O)C3)c2)c1,inconclusive: 83%
10,CN(c1ccc(OCC(=O)OCC(=O)NCc2ccco2)cc1)S(=O)(=O)c1ccc2ccccc2c1,inactive: 100%
11,COC(=O)/C=C/C(=O)Nc1cccnc1,inactive: 101%
12,O=[N+]([O-])c1ccccc1/C=N/Nc1nnc(-c2ccccc2)c(-c2ccccc2)n1,inactive: 102%
13,Cc1cccc(-n2c(C)cc(/C=N\NC(=O)c3cccs3)c2C)c1,inconclusive: 99%
14,O=C(O)C1CCCN1C(=O)OCc1ccccc1 (stereo unspecified),active: 122% [activator]
15,C(=N\N1CCN(Cc2ccccc2)CC1)/c1cccs1,inconclusive: 93%
16,CN(C)c1nc(=S)nc(NCc2ccccc2)[nH]1,inconclusive: 111%
17,Cc1ccc2nc3ccc(N4CCCC4)nn3c(=O)c2c1,inactive: 106%
18,COc1cccc(=O)c2c(C)n(CC(=O)c3ccccc3)c(C)c12,inconclusive: 91%
19,Cc1cc(C)n2nc(SCCOc3ccc(F)cc3)nc2n1,active: 74%
20,CCOc1cc(N2CCOCC2)c(OCC)cc1NC(=O)c1ccc(OC(C)C)cc1,inactive: 99%
21,N/C(=N\OC(=O)C1CCCCC1)c1cccnc1,inconclusive: 106%
22,Cc1ccccc1C(=O)NC1CCN(Cc2nnnn2Cc2ccccc2)CC1,inconclusive: 104%
23,O=C(CSc1nnc(NC(=O)c2ccc(S(=O)(=O)N3CCOCC3)cc2)s1)Nc1ccccc1C(F)(F)F,inactive: 102%
